Assay results: PMC4336329 (PLoS ONE, 2015)
The campaign covered roughly 310,000 compounds. About 14,000 (4.5%) showed an effect of 50% or more. The effect is printed as a negative number. The list shows a part of the results.

target: human ether-à-go-go-related gene (hERG) potassium channel (human, UniProt Q12809); assay: primary screen, population patch clamp on CHO cells stably expressing hERG
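Also: peak tail current of the secondary pulse compared with the same well before compound.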

Sequence of human ether-à-go-go-related gene (hERG) potassium channel (Q12809 whole entry, looked up): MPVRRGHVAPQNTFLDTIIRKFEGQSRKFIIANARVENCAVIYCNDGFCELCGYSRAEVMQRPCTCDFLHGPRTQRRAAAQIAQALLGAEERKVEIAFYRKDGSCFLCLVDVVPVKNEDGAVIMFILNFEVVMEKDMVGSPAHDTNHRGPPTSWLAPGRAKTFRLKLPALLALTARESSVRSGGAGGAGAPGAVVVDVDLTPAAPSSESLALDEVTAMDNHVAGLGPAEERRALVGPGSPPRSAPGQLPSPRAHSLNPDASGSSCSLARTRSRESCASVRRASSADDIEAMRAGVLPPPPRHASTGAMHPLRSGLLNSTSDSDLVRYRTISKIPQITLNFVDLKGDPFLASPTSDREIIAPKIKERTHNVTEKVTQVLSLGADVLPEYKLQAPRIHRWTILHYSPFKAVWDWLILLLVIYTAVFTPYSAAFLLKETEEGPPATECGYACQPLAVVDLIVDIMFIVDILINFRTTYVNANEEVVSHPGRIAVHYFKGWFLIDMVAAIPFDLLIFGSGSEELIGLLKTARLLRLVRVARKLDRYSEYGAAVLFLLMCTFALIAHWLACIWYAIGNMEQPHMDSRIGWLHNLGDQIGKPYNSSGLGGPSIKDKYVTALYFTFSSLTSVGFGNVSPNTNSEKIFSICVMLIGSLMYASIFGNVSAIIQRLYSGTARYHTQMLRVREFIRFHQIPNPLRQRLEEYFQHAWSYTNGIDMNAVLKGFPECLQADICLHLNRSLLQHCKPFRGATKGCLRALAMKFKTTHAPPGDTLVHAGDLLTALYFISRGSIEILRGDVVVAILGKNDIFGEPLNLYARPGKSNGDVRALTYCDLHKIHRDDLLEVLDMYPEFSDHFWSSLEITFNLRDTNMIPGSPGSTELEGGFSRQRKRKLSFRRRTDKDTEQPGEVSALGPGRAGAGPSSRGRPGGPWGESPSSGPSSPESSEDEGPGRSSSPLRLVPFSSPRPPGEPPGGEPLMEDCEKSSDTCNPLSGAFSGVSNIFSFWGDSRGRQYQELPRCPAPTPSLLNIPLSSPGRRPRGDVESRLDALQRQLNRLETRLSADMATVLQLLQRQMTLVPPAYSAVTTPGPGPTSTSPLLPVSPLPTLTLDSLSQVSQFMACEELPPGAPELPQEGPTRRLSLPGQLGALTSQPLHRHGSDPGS

Row | Structure (SMILES) | hERG current change (%, negative = inhibition) at 10uM [%]
1 | Cc1cn2c(-c3ccc(Cl)cc3)nnc2s1 | -33.3
2 | CCCCN(C(=O)CN1C(=O)C2CCCCC2C1=O)c1c(N)n(CCC)c(=O)[nH]c1=O (centres unmarked) | 12.2
3 | CCn1c(SCC(=O)c2c[nH]c3ccccc23)nnc1-c1cccs1 | 3.13
4 | COC1CCCCC1NS(=O)(=O)c1ccc(Cl)cc1 (centres unmarked) | 5.52
5 | CN1CCN(NC(=O)c2ccccc2F)CC1 | 18
6 | O=C(O)c1cc2c(cc1Cl)N1CCCCCC1=NS2(=O)=O | -1.19
7 | Cc1ccc(NC(=O)Nc2c(C)[nH]c(=O)[nH]c2=O)cc1Cl | 17.7
8 | CCOC(=O)CSc1nc(C(C)C)nc2sc(C)c(C)c12 | 25.5
9 | CC(C)CC1NC(=O)N(CC(=O)N2CCN(S(=O)(=O)c3ccc4ccccc4c3)CC2)C1=O (centres unmarked) | -7.96
10 | Cc1ccc2c(c1)C(c1ccccc1)N(C(=O)c1ccc(Br)cc1)CC(=O)N2 (centres unmarked) | -10.2
11 | CCCNC(=O)COC(=O)/C=C/c1cccc(F)c1 | 3.33
12 | O=C(Nc1ccc(F)cc1)c1ccccc1F | -1.54
13 | COc1ccc(CNC(=O)c2ccc(C)o2)cc1 | 5.6
14 | CC(C)N1CCC(N2CCN(Cc3cccc4nonc34)CC2CCO)CC1 (centres unmarked) | 3.08
15 | Cc1ccccc1NC(=O)NC1CCCCCCC1 | 8.64
16 | Nc1ccc2c(c1)Oc1ccccc1C=C2 | -12.7
17 | Cc1noc(C)c1S(=O)(=O)N(C)CC(=O)Nc1ccc(F)cc1 | 3.4
18 | OCCC1CN(CC2CCCCC2)CCN1CC1CCCCC1 (centres unmarked) | -28
19 | Cc1cc(C)c2nc(N3CCC(C(=O)NCCCN4CCCCC4)CC3)sc2c1 | -37.2

Row | Structure (SMILES) | hERG current change (%, negative = inhibition) at 10uM [%]
20 | O=c1cc(CSc2ccccc2)nc(-c2ccccc2)[nH]1 | 6.19
21 | CCC(C(=O)O)N1C(=O)/C(=C/C(C)=C/c2ccccc2)SC1=S (centres unmarked) | 6.55
22 | CCCCN(C(=O)c1ccc(NC2CC2)c([N+](=O)[O-])c1)c1c(N)n(CC(C)C)c(=O)[nH]c1=O | -2.38
23 | COc1ccc(S(=O)(=O)N2CCc3ccccc32)cc1C(=O)N1CCOCC1 | -0.239
24 | O=C(CN1C(=O)c2ccccc2S1(=O)=O)c1ccc(Cl)cc1Cl | -1.92
25 | COc1ccc(C2CC(=O)N(C)c3ccccc3S2)cc1OC (centres unmarked) | -3.09
26 | CC(NC(=O)CCc1nnc(-c2ccc(-c3ccccc3)cc2)o1)c1nc2ccccc2[nH]1 (centres unmarked) | -8.94
27 | CC(=O)c1ccc(N(C(=O)CNC(=O)c2ccco2)C(C(=O)NC2CCCC2)c2ccncc2)cc1 (centres unmarked) | 20.3
28 | CCOc1ccc(CCNC(=O)COC(=O)/C=C/c2ccc(OC)c(OC)c2)cc1OCC | -0.716
29 | COc1ccc(NC(=O)CN(c2ccccc2C)S(C)(=O)=O)c(OC)c1 | 11.7
30 | CC(=O)Nc1ccc(OC(=O)N(C)C)cc1 | -11.3
31 | O=C(Cc1ccc(S(=O)(=O)N2CCOCC2)s1)N(Cc1ccccc1)c1ccccc1 | -3.74
32 | CC(=O)Nc1ccc(OCc2nnc(-c3ccc(Cl)cc3)o2)cc1 | 1.1
33 | COc1ccc(Br)cc1CNC(=O)CCc1nc(-c2ccccc2F)no1 | 1.51
34 | Cc1ccc(S(=O)(=O)N2CCC(C(=O)N3CCc4ccccc43)CC2)cc1 | -3.76
35 | NC(=S)n1[nH]c(-c2ccc([N+](=O)[O-])cc2)c(N=Nc2ccc(O)cc2)c1=O | 4.06
36 | Cc1ccc(C(CC(=O)NCCCN(C)C)c2ccc(OC(C)C)cc2)cc1 (centres unmarked) | -42.9
37 | COc1ccc(/C=C/C(=O)NCc2cnn(C)c2C)cc1COc1ccc(Br)cc1 | 6.13
38 | CN1c2ccsc2C(=O)/C(=C\Nc2cccc(C(F)(F)F)c2)S1(=O)=O | 9.64

Row | Structure (SMILES) | hERG current change (%, negative = inhibition) at 10uM [%]
39 | COc1ccc(NS(=O)(=O)c2cccc(C(=O)N/N=C/c3ccc(O)cc3)c2)cc1 | 5.75
40 | CC(=O)CSc1ccc(S(=O)(=O)N2CCN(C)CC2)cn1 | 9.87
41 | Cc1ccc(S(=O)(=O)/N=C(/NC(=S)Nc2c(C)n(C)n(-c3ccccc3)c2=O)c2ccccc2)cc1 | 4.2
42 | [O-]/C(=C(\C(=S)NCc1ccccc1)[n+]1ccccc1)c1ccc(Cl)cc1 | 7.11
43 | O=C(c1ccccc1Sc1ccc([N+](=O)[O-])cc1Cl)N1CCOCC1 | -11.2
44 | Cc1nnc(SCc2ccc(C(=O)c3ccc(Cl)cc3)o2)n1-c1ccccc1 | -48.1
45 | CSc1cccc(CN2CCC(CO)(Cc3cccc(C(F)(F)F)c3)CC2)c1 | -64.4
46 | CC(C)/C=C1\CCCCC1N(C)C(=O)NC(C)C (centres unmarked) | 12.1
47 | CCC1(c2ccccc2)NC(=O)N(CC(=O)NNC(=O)CCN2CCN(c3ccccc3)CC2)C1=O (centres unmarked) | 18.6
48 | Cc1ccc(NC(=S)NCCc2ccccc2)c(C)c1 | 10.1
49 | O=C(O)c1cc(-c2ccc(Cl)cc2)n(-c2cccc(Cl)c2)n1 | 23.4
50 | COc1cc(C(=S)N2CCCC2)ccc1OC(=O)c1ccc(Cl)cc1[N+](=O)[O-] | 4.06
51 | CC(C)(C)n1nnnc1C(c1cc2cc3c(cc2[nH]c1=O)OCO3)N1CCN(c2ccccc2)CC1 (centres unmarked) | -22.4
52 | O=c1oc2ccccc2cc1N1CCOCC1 | -7.08
53 | Cc1ccc(OC(C)C(=O)N=Nc2c(O)[nH]c3ccc([N+](=O)[O-])cc23)cc1 (centres unmarked) | -33.3
54 | CN(C)c1ccc(/C=N/NC(=O)c2nonc2N)cc1[N+](=O)[O-] | 3.72
55 | O=C(CN1CCN(S(=O)(=O)c2ccc(F)cc2)CC1)NCc1cccs1 | -32.1
56 | CCOC(=O)C1CCCN(Cc2ccccc2Cl)C1 (centres unmarked) | -3.88
